# According to publication PMC4336329 (PLoS ONE, 2015):
# Hit rate of the full screen: of about 310,000 compounds, about 14,000 (4.5%) showed an effect of 50% or more. The effect is printed as a negative number. The list shows a part of the results.
# Biological target: human ether-à-go-go-related gene (hERG) potassium channel (human, UniProt Q12809)
# Experiment: primary screen, population patch clamp on CHO cells stably expressing hERG
# 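Further: peak tail current of the secondary pulse compared with the same well before compound.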
# Sequence of human ether-à-go-go-related gene (hERG) potassium channel (Q12809 whole entry, looked up): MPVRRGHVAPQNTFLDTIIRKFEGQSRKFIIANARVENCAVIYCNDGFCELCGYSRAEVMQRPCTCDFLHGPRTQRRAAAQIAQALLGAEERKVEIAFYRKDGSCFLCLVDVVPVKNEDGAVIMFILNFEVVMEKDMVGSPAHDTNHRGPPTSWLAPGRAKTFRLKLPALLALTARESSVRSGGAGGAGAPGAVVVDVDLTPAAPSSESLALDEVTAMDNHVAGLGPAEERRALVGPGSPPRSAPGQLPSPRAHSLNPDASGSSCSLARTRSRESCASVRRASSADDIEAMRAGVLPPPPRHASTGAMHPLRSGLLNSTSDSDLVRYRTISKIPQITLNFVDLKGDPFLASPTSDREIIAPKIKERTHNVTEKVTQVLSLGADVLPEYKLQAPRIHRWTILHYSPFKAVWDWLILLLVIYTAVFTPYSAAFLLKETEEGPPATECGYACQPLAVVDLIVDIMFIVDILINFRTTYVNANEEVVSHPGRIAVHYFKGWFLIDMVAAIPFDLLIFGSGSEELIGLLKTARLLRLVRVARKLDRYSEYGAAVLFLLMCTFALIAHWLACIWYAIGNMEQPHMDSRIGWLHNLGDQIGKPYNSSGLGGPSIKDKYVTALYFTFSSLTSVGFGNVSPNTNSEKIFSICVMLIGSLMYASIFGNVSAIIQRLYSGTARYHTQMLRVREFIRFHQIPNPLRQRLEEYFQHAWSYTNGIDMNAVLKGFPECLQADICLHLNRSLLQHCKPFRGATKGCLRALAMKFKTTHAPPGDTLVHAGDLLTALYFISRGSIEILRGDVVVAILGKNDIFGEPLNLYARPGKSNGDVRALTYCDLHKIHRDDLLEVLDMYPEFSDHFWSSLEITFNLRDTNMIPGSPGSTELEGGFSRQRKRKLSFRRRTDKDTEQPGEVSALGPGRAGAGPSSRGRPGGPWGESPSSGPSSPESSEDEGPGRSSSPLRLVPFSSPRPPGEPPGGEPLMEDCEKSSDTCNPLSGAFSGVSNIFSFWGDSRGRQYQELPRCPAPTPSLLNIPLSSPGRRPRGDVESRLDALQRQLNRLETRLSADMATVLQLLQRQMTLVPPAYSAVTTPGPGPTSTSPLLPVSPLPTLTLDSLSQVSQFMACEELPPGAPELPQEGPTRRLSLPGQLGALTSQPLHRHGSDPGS
row,SMILES,"hERG current change (%, negative = inhibition) at 10uM [%]"
1,COc1ccc2c(c1)-c1c(ssc1=S)C(C)(C)N2C(=O)CSC1=NCCS1,16.7
2,COC(=O)c1c(-c2ccccc2)noc1-c1ccccc1,2.19
3,COc1cccc(NC(=O)CN(C)C(=O)CC(NC(=O)c2ccccc2Cl)c2ccccc2)c1 (stereo not drawn),-49.7
4,COc1ccc(CC(=O)NCC2(c3ccc(OC)c(OC)c3)CCOCC2)cc1,14.3
5,Cc1ccc(C(C)C)c(OCc2ccc(C(=O)N/N=C/c3ccc(O)cc3O)cc2)c1,10.9
6,C/C(=N/NC(=O)C1CCCCC1)c1ccc([N+](=O)[O-])cc1,11.2
7,CCn1c(CCNC(=O)c2ccc(F)cc2)nc2ccccc21,-33.9
8,COc1ccc(-c2[nH]ncc2CN2CCCOc3c(cccc3OC)C2)c(OC)c1,-48
9,OCC[C@H]1C[C@@H](O)[C@H](O)[C@]2(OCc3ccccc32)O1,-0.346
10,O=C(NC1CCCC1)C1CCCN(S(=O)(=O)c2cnc[nH]2)C1 (stereo not drawn),15.3
11,Cc1ccc(CCNC(=O)CNC(=O)c2cccs2)cc1,25.4
12,CCn1c(CN2CCN(C(c3ccccc3)c3ccccc3)CC2)nc2c1c(=O)n(C)c(=O)n2C,-43.9
13,CC(C)=NNC(=O)C1=NNC(=O)C1,12.3
14,CCN(CC(=O)NCc1ccc(Cl)cc1)C(=O)CCC(=O)c1ccc(F)cc1,-61.9
15,CCC(C)n1c(SCC(=O)Nc2ccc3[nH]c(=O)[nH]c3c2)nc2ccccc2c1=O (stereo not drawn),1.69
16,CCN(CC)Cc1c(CC(C)C)oc(C)c1C(=O)O.Cl,-4.52
17,Cc1cccc(-n2cnc(C(=O)N/N=C\c3ccc(Br)cc3)c2)n1,-11.9
18,CC(C)NC(=O)Cn1c(SCC(=O)NC2CCCC2)nc2ccccc21,-16.3
19,CCOCCCNC(=O)CCn1nc(-c2ccc(Cl)cc2)ccc1=O,-46.4

row,SMILES,"hERG current change (%, negative = inhibition) at 10uM [%]"
1,Cc1cc(NC(=O)CSCc2ccc([N+](=O)[O-])cc2)no1,-1.21
2,CCC(=O)N1CCc2cc(S(=O)(=O)Nc3ccc4c(c3)OCCO4)ccc21,10
3,C=CCn1c(SCC(=O)Nc2c(C)n(C)n(-c3ccccc3)c2=O)nc2sc(C)c(-c3ccccc3)c2c1=O,-54
4,CCCCn1c(N)c(N(CCOC)C(=O)c2cc(-c3ccccc3Cl)nc3ccccc23)c(=O)[nH]c1=O,-5.76
5,CCN(c1ccccc1)S(=O)(=O)c1ccc(C(=O)N(CCCN(C)C)c2nc3cc4c(cc3s2)OCO4)cc1.Cl,-57.4
6,O=C(C1CCN(Cc2nc(Cc3cccc(F)c3)no2)CC1)N1CCOCC1,1.52
7,COCc1nnc(NC(=O)CCCOc2ccccc2)s1,-2.55
8,CC(C)C(=O)Nc1ccc(NC(=O)c2cc3ccccc3o2)cc1,3.66
9,CCCC1CC(CSc2ncn[nH]2)OC1=O (stereo not drawn),-0.121
10,C=C(C)Cn1c(COc2ccccc2)nnc1SCC(=O)O,14.9
11,COc1cc(S(=O)(=O)N2CCCCCC2)ccc1-n1cnnn1,-16.9
12,Cn1cc(C(=O)NS(=O)(=O)Nc2ccc(Br)cc2)c2ccccc21,17.4
13,COc1cc(NC(=O)c2cccnc2)c(Cl)cc1NC(=O)c1ccc(Cl)cc1,-0.00342
14,COc1ccc2sc(SCCCS(=O)(=O)O)[n+](CCCS(=O)(=O)[O-])c2c1,24.1
15,Cc1ccc(C(=O)N/C(=C\c2cccnc2)C(=O)N2CCCC2)cc1,-1.72
16,CC(C)c1ccc(NC(=O)Cc2ccc(NC3=NC4CS(=O)(=O)CC4S3)cc2)cc1 (stereo not drawn),13.4
17,Cc1cccc(CCN2CCN=C2N(C)C)c1,0.575
18,COc1cc(C(=S)N2CCOCC2)ccc1OC(=O)c1ccccc1,0.478
19,CC1=C(Cl)C2=NS(=O)(=O)CCN2C=C1Cl,14.2

row,SMILES,"hERG current change (%, negative = inhibition) at 10uM [%]"
1,CC(C)(C)c1ccc(OCCn2ccccc2=O)cc1,-5.8
2,O=C(COc1ccc(F)cc1F)Nc1cccnc1,15.3
3,O=C(Cn1nc(C(=O)O)c2ccccc2c1=O)Nc1ccc2c(c1)OCO2,1.16
4,COc1ccc2c(c1)-c1nc(/N=C/c3cccc(OC)c3O)sc1CC2,10.5
5,COC(=O)c1cc(-c2ccc(F)cc2)n(-c2ccccc2)n1,-18.8
6,CC(C)c1ccc(NC(=O)COc2ccc(C3SCCS3)cc2)cc1,13.3
7,COc1cccc(C(=O)Nc2c(C(N)=O)oc3ccccc23)c1,3.4
8,COc1ccc2c(-c3ccccc3)cc(N3CCOCC3)nc2c1.O=C(O)C(=O)O,3.22
9,C=CCn1c(SCC(=O)NC2CCCCC2)nnc1C(C)NC(=O)c1cccs1 (stereo not drawn),-11
10,O=C(O)c1ccc2c(c1)C(=O)N(c1cc(C(=O)O)ccc1Br)C2=O,-4.78
11,COc1ccccc1C(CC(=O)c1ccccc1)CC(=O)c1ccccc1,19.1
12,Cn1c(=S)[nH]c2ccccc21,17.2
13,COC(=O)c1sc2ncn(CC(=O)N(C)C3CCCCC3)c(=O)c2c1C,11.9
14,CS(=O)(=O)N(Cc1cc2ccccc2[nH]c1=O)C1CCCCC1,-3.02
15,Cc1c(NC(=O)COC(=O)Cc2ccc(Br)cc2)c(=O)n(-c2ccccc2)n1C,5.33
16,CCOc1ncccc1C(=O)OCC(=O)Nc1cc(S(=O)(=O)N2CCOCC2)ccc1C,-8.24
17,O=C(CSc1ccc(Br)cc1)N1CCOCC1,15.5
18,COC1Cc2ccccc2N(C(N)=O)c2ccccc21 (stereo not drawn),7.85
19,Clc1ccc2c(c1)C=Nc1c(NCc3ccccc3)ncnc1O2,4.71
